Results as given in PubChem BioAssay AID1745845 (National Center for Advancing Translational Sciences (NCATS), 2022).
The whole screen tested about 360,000 compounds, of which about 2,600 (0.72%) were called active. Inconclusive means that the source gave no clear call. Such entries were picked first, then a sample of the others. Calls follow the shape of the dose curve; as a rule, active = well fitted inhibition curve with a large enough effect; inconclusive = small, poorly fitted or top-dose-only effect; inactive = no such curve, though single readings can be large or run the other way. Where the call is inconclusive, the potency comes from a doubtful curve fit.

Assay: Primary qHTS for Inhibitors of ATXN expression; also: nearly all actives have a fitted effect of over 55% in size
Conditions: HEK-293 ATXN2-luciferase reporter, luminescence, 24 h; activity change, negative = inhibition: at 57 µM (top of the series)
In short: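 qHTS (up to 57 uM final) was run with 24 h compound exposure of reporter cells at 37 °C. Each well was multiplexed: SteadyGlo luminescence measured ATXN2-luciferase expression after a fluorogenic Gly-Phe-AFC viability readout (25 uM final).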
% is scaled to controls: 0 for no effect and ±100 for the full control effect; potency is read from the fitted curve at half-maximal effect; tags tell the direction and shape of the fitted curve.

| SMILES | Potency | activity change, negative = inhibition |
| --- | --- | --- |
| CCN1C(=O)C(CC(=O)Nc2ccc(OC)cc2)N(CCc2ccccc2F)C1=S (centres undefined) | inconclusive: 13.4 µM [inhibitor, partial curve, poor fit] | – |
| Cc1cc(C)c2cc3c(N)c(C(=O)N4CCc5ccccc5C4)sc3nc2c1 | – | inactive: -20.2% |
| COc1ccc(C(=O)Nc2ccc(C3(C#N)CCCC3)cc2)cc1 | – | inactive: -8.53% |
| S=C(NCc1cccnc1)Nc1ccc(Oc2ccc(Cl)cc2)cc1 | inconclusive: 29.9 µM [inhibitor, partial curve, poor fit] | – |
| O=C(CN1C2=NCCCN2c2ccccc21)c1ccc([N+](=O)[O-])cc1 | inconclusive: 31.6 µM [inhibitor, single point] | – |
| O=[N+]([O-])c1cccc2c(N3CCCC3)ccnc12 | inconclusive: 1.68 µM [inhibitor, full curve, poor fit] | – |
| Cc1ccc(N(Cc2ccccc2)C(=O)c2cccc(S(=O)(=O)N3CC(C)OC(C)C3)c2)cc1 (centres undefined) | inconclusive: 22.4 µM [inhibitor, single point] | – |
| Cc1ccc(NC(=O)Nc2ccc3c(c2)N(C)C(=O)CS3)cc1C | inconclusive: 28.2 µM [inhibitor, single point] | – |
| COc1ccccc1-c1nc(-c2ccccn2)no1 | inconclusive: 10 µM [inhibitor, partial curve, poor fit] | – |
| O=C(N/N=C/c1ccoc1)c1cc(Br)ccc1O | – | inactive: 3.05% |
| O=C(/C=C/c1ccc(OCCCF)cc1)N1CCN(Cc2ccccc2)CC1 | – | inactive: -0.811% |
| CCC(=O)OCc1cc(=O)oc2ccc3ccccc3c12 | – | inactive: -10.5% |
| Cc1ccccc1N=Cc1c(O)n(-c2nccs2)c(=O)c2ccccc12 | – | inactive: 4.72% |
| C#CCOCCOCCOCCNc1nc(N2CCN(C(=O)CCCCCCCCCCNC(=O)Cn3cc(C[C@@H](C)O)nn3)CC2)nc(N2CCN(C(=O)CCCCCCCCCCNC(=O)[C@H](CCCCN)n3cc(C[C@@H](C)CC)nn3)CC2)n1 | active: 25.1 µM | – |
| COCCN(C(=O)Cc1ccc(OC)c(OC)c1)c1nc(-c2cc(OC)ccc2OC)cs1 | – | inactive: -9.38% |
| COc1ccc(/C=N/Nc2cc(C)nc3c(C)cccc23)cc1 | – | inconclusive: -94.6% [inhibitor] |
| N/C(=N\N=C\c1ccc(Cl)cc1)N/N=C/c1ccc(Cl)cc1 | inconclusive: 39.8 µM [inhibitor, single point] | – |
| O=C(Cc1ccc(F)cc1)NCCS(=O)(=O)N1CCN(c2ccccc2)CC1 | inconclusive: 22.4 µM [inhibitor, partial curve, poor fit] | – |
| Cc1[nH]c2ccccc2c1/C=N/Nc1nc2ccccc2[nH]1 | inconclusive: 39.8 µM [inhibitor, single point] | – |
